In the supplement of paper PMC4604168 (melanoma cell lines):
The list shows a part of the results. Many values rest on one well or one pass, so single values are uncertain.

How the values were obtained:
Assay in all cases: cell count relative to DMSO control; melanoma cells; higher = more viable cells
Details in all cases: library dose: low library concentration; 72 h
MeWo = tested on: MeWo
RPMI7951 = tested on: RPMI7951
RVH-421 = tested on: RVH-421
SkMel28 = tested on: SkMel28
SkMel30 = tested on: SkMel30
SkMel5 = tested on: SkMel5
UACC257 = tested on: UACC257
UACC62 = tested on: UACC62
WM115 = tested on: WM115
WM1716 = tested on: WM1716
WM1745 = tested on: WM1745
WM3526 = tested on: WM3526
WM3619 = tested on: WM3619
WM451Lu = tested on: WM451Lu
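Note: cell number obtained by counting DAPI-stained nuclei in high-throughput microscope images with image analysis software, screen run in 1,536-well plates.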

SMILES	cell count (MeWo)	cell count (RPMI7951)	cell count (RVH-421)	cell count (SkMel28)	cell count (SkMel30)	cell count (SkMel5)	cell count (UACC257)	cell count (UACC62)	cell count (WM115)	cell count (WM1716)	cell count (WM1745)	cell count (WM3526)	cell count (WM3619)	cell count (WM451Lu)
COC(=O)c1sccc1S(=O)(=O)Nc1ccc(Nc2ccccc2)cc1OC + COc1ccc(COc2ccc(Cc3cnc(N)nc3N)cc2OC)cc1 [GW2580] (first compound 1 µM, partner dose 1 µM)	97.4%	99.3%	93.6%	89%	111%	83.3%	100%	91.9%	107%	87.8%	109%	106%	102%	102%
COC(=O)c1sccc1S(=O)(=O)Nc1ccc(Nc2ccccc2)cc1OC + CCN(CC)CCCCNc1ncc2cc(-c3cc(OC)cc(OC)c3)c(NC(=O)NC(C)(C)C)nc2n1 [PD173074] (first compound 1 µM, partner dose 0.1 µM)	113%	101%	103%	90.7%	89.3%	92.8%	83.6%	92.5%	108%	109%	87.8%	84.7%	106%	88.3%
O=S(=O)(c1ccccc1)N(CC(F)(F)F)c1ccc(C(O)(C(F)(F)F)C(F)(F)F)cc1 + CC(C)CCN1c2nc(Nc3cc(F)c(O)c(F)c3)ncc2N(C)C(=O)C1C [BID1870] (first compound 1.4 µM, partner dose 0.2 µM)	88.8%	106%	92.5%	81.8%	84.5%	72.7%	87.1%	91.7%	78.8%	94.1%	93.4%	81.1%	87.3%	100%
COc1cc2ncnc(Nc3ccc(Oc4ccccc4)cc3)c2cc1OC + CC(C)CCN1c2nc(Nc3cc(F)c(O)c(F)c3)ncc2N(C)C(=O)C1C [BID1870] (first compound 2 µM, partner dose 0.2 µM)	101%	97.1%	94.8%	81.5%	115%	100%	106%	89.4%	98.5%	110%	92.9%	105%	109%	120%
O=C(O)C(=O)Nc1sc2c(c1C(=O)O)CCNC2 + O=C1NC(=O)/C(=C/c2ccc(-c3ccc(F)cc3O)o2)S1 [AS252424] (first compound 1.66667 µM, partner dose 1 µM)	94.4%	92.4%	116%	87.6%	95.6%	74.9%	93%	85%	101%	109%	82.7%	109%	93.2%	103%
COc1ccc(COc2ccc(Cc3cnc(N)nc3N)cc2OC)cc1 + O=C1NC(=O)/C(=C/c2ccc(-c3ccc(F)cc3O)o2)S1 [AS252424] (first compound 1 µM, partner dose 1 µM)	95.9%	113%	121%	93.9%	92.1%	108%	82.1%	107%	98.3%	97%	98.2%	121%	97.5%	93.2%
COc1ccc(-c2ccc3c(N4CCOCC4)nc(N4C[C@@H](C)O[C@@H](C)C4)nc3n2)cc1CO + CCCCCCCCCCCC1=C(O)C(=O)C=C(O)C1=O [Embelin] (first compound 0.02 µM, partner dose 1.2 µM)	96%	82.7%	91.4%	85.1%	98%	94.9%	93.5%	88.9%	80.8%	103%	94.4%	106%	104%	103%
c1cc(-c2cnn3cc(-c4ccc(OCCN5CCCCC5)cc4)cnc23)ccn1 [Dorsomorphin] + CC(C)CCN1c2nc(Nc3cc(F)c(O)c(F)c3)ncc2N(C)C(=O)C1C [BID1870] (first compound 0.4 µM, partner dose 0.2 µM)	87.8%	107%	93.9%	99.2%	96.7%	102%	82.6%	94%	91.1%	91.2%	96.4%	88.5%	101%	100%
O=C(O)C(=O)Nc1sc2c(c1C(=O)O)CCNC2 + Oc1nc(-c2ccc(C(F)(F)F)cc2)nc2c1CSCC2 [XAV939] (first compound 1.66667 µM, partner dose 2 µM)	98.4%	92.2%	96%	98.4%	134%	82.2%	69.5%	91.1%	77.3%	47.2%	68.2%	126%	102%	92%
COc1ccc2c(c1)CCC1C2CCC2(C)C(NCCCCCCN3C(=O)C=CC3=O)CCC12 (stereo not given) + c1cc(-c2cnn3cc(-c4ccc(OCCN5CCCCC5)cc4)cnc23)ccn1 [Dorsomorphin] (first compound 0.4 µM, partner dose 0.4 µM)	96.4%	75.2%	99.9%	86.5%	95%	88.4%	86.3%	114%	94.2%	91.8%	85.9%	93%	111%	95.1%
c1cc(-c2cnn3cc(-c4ccc(OCCN5CCCCC5)cc4)cnc23)ccn1 [Dorsomorphin] + COc1cc(N2CCC(N3CCN(C)CC3)CC2)ccc1Nc1ncc(Cl)c(Nc2ccccc2S(=O)(=O)C(C)C)n1 [NVP-TAE684] (first compound 0.4 µM, partner dose 0.08 µM)	96.3%	108%	101%	100%	98.4%	97%	96.9%	116%	105%	107%	78.6%	90.6%	127%	99%
Oc1cc(-c2nc(-c3ccccc3)[nH]c2-c2ccncc2)ccc1Cl + CCCCCCCCCCCC1=C(O)C(=O)C=C(O)C1=O [Embelin] (first compound 0.2 µM, partner dose 1.2 µM)	113%	98.3%	113%	81.6%	94.5%	104%	88%	80.3%	97.3%	107%	94.3%	100%	108%	80.6%
COc1ccc(COc2ccc(Cc3cnc(N)nc3N)cc2OC)cc1 + CC(C)CCN1c2nc(Nc3cc(F)c(O)c(F)c3)ncc2N(C)C(=O)C1C [BID1870] (first compound 1 µM, partner dose 0.2 µM)	114%	116%	121%	90.1%	58%	98.7%	99.9%	103%	96.6%	113%	113%	52.7%	138%	117%
N#Cc1c(O)c2c(-c3ccc(-c4ccccc4O)cc3)csc2[nH]c1=O + Cn1cc(/C=C2\C(=O)Nc3cccnc32)c2ccccc21 [GW441756] (first compound 2 µM, partner dose 0.4 µM)	101%	113%	81.8%	74.1%	99.8%	84.5%	86.9%	96%	97.7%	119%	96.3%	91.5%	131%	84.1%
Cc1cc([N+](=O)[O-])ccc1NS(=O)(=O)c1cc(Cl)ccc1Cl + Oc1nc(-c2ccc(C(F)(F)F)cc2)nc2c1CSCC2 [XAV939] (first compound 1 µM, partner dose 2 µM)	86.7%	87%	83.2%	96.5%	120%	84.1%	81.9%	89.7%	77.3%	71.4%	91.9%	103%	113%	111%
CCN(CC)CCCCNc1ncc2cc(-c3cc(OC)cc(OC)c3)c(NC(=O)NC(C)(C)C)nc2n1 + COc1cc(N2CCC(N3CCN(C)CC3)CC2)ccc1Nc1ncc(Cl)c(Nc2ccccc2S(=O)(=O)C(C)C)n1 [NVP-TAE684] (first compound 0.1 µM, partner dose 0.08 µM)	94.8%	75%	81%	96.2%	82.8%	89.7%	103%	92%	106%	104%	88.1%	93.6%	120%	98.4%
N#Cc1c(O)c2c(-c3ccc(-c4ccccc4O)cc3)csc2[nH]c1=O + O=C1NC(=O)/C(=C/c2ccc(-c3ccc(F)cc3O)o2)S1 [AS252424] (first compound 2 µM, partner dose 1 µM)	97.1%	106%	124%	91%	77.7%	95.3%	90.9%	105%	99.3%	107%	98%	78.6%	121%	105%
O=S(=O)(c1ccccc1)N(CC(F)(F)F)c1ccc(C(O)(C(F)(F)F)C(F)(F)F)cc1 + COc1cc(N2CCC(N3CCN(C)CC3)CC2)ccc1Nc1ncc(Cl)c(Nc2ccccc2S(=O)(=O)C(C)C)n1 [NVP-TAE684] (first compound 1.4 µM, partner dose 0.08 µM)	94%	107%	108%	93.4%	102%	70.8%	83%	82.3%	96.5%	96.1%	80.7%	78.5%	94.9%	97.6%
COc1ccc2c(c1)CCC1C2CCC2(C)C(NCCCCCCN3C(=O)C=CC3=O)CCC12 (stereo not given) + CC(C)CCN1c2nc(Nc3cc(F)c(O)c(F)c3)ncc2N(C)C(=O)C1C [BID1870] (first compound 0.4 µM, partner dose 0.2 µM)	100%	84.2%	94.4%	98.7%	101%	92.6%	78.8%	95.1%	88.5%	74.1%	101%	92.4%	104%	117%
O=C(O)C(=O)Nc1sc2c(c1C(=O)O)CCNC2 + CCCCCCCCCCCC1=C(O)C(=O)C=C(O)C1=O [Embelin] (first compound 1.66667 µM, partner dose 1.2 µM)	105%	115%	93.3%	99.9%	125%	114%	91.4%	92.9%	88.1%	98.4%	89.4%	101%	132%	105%
